According to article PMC8888634:
These are yes or no findings as the source states them, for the method shown. Binding seen in cells or lysates may run through a third protein. Some results given as binding are weak or reduced against the parent protein; the word gives no strength.

Amino acid sequences for entries named in this document (tags omitted).
UniProt P51532: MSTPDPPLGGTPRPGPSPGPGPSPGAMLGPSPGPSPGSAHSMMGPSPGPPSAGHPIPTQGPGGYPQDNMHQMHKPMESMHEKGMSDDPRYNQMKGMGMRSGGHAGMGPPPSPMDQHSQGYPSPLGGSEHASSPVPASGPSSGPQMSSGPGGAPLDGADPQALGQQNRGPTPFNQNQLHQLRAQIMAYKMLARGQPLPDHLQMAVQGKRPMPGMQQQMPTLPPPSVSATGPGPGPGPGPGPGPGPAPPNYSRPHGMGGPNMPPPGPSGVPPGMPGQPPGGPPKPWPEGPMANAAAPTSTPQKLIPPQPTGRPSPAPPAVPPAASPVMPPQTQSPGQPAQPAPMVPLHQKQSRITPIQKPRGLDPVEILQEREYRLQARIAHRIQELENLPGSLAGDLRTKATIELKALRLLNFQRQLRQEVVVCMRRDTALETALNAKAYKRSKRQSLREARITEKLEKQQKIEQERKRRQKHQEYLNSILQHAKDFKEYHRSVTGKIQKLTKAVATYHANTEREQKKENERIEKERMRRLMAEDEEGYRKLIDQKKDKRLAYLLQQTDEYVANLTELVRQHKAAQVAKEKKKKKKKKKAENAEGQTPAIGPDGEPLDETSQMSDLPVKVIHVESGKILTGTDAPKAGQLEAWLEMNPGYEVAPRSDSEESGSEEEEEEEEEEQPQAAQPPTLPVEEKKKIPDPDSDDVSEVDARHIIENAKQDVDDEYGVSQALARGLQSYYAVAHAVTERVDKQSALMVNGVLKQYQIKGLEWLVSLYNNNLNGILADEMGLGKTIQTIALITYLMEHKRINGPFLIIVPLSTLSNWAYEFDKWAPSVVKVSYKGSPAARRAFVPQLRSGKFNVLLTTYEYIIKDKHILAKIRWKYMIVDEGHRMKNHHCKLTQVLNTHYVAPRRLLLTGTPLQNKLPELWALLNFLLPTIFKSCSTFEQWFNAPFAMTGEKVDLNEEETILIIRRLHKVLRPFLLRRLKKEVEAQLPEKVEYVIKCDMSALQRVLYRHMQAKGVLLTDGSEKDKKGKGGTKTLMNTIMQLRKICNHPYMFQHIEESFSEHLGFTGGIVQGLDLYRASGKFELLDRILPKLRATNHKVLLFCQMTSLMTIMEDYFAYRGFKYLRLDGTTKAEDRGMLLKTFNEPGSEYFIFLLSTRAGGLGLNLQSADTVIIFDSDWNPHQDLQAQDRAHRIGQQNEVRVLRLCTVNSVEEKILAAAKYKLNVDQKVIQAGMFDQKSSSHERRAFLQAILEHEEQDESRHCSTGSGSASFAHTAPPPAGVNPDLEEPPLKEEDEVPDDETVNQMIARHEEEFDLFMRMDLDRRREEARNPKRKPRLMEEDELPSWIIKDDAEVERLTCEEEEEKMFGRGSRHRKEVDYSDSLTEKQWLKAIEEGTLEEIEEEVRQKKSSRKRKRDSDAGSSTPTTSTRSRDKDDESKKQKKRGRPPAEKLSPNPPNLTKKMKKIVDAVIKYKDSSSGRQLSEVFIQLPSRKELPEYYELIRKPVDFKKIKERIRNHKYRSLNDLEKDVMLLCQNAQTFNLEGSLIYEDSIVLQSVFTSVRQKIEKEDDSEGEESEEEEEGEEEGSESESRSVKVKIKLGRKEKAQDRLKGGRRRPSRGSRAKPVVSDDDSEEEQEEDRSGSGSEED

Target: Brg1, the ATPase subunit of the SWI/SNF chromatin remodeling complex, endogenous in prostate cancer cells (human (endogenous in VCaP)) (UniProt P51532)
Test: co-IP; endogenous proteins, VCaP cells; anti-OTUD6A or anti-Brg1, anti-AR antibodies, IgG as negative control; lysis in EBC buffer (50 mM Tris pH 8.0, 120 mM NaCl, 0.5% NP-40), overnight at 4 °C, washes with NETN buffer; immunoblot

- binding: binds
B1: OTUD6A, endogenous in prostate cancer cells (enzyme, UniProt Q7L8S5 1-288)
chain: MDDPKSEQQRILRRHQRERQELQAQIRSLKNSVPKTDKTKRKQLLQDVARMEAEMAQKHRQELEKFQDDSSIESVVEDLAKMNLENRPPRSSKAHRKRERMESEERERQESIFQAEMSEHLAGFKREEEEKLAAILGARGLEMKAIPADGHCMYRAIQDQLVFSVSVEMLRCRTASYMKKHVDEFLPFFSNPETSDSFGYDDFMIYCDNIVRTTAWGGQLELRALSHVLKTPIEVIQADSPTLIIGEEYVKKPIILVYLRYAYSLGEHYNSVTPLEAGAAGGVLPRLL
